Assay results published in PubChem BioAssay AID1346428 (National Center for Advancing Translational Sciences (NCATS), 2018).
Values joined by “and” are separate entries in the source; they are usually repeats but may differ in a detail not shown here. Equal entries are not always repeated. Among all 48,000 compounds or so, about 1,200 (2.5%) were called active. About 2% were inconclusive and are not listed.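 Rule for the calls: active = activation of at least 60% and not above a set upper limit (about 1 call in 100 departs from these limits); inconclusive = activation of 40% to 60%, or above that upper limit; inactive = activation under 40%.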 This is one part of the list.

Biological target: Probable G-protein coupled receptor 32 (Homo sapiens) (UniProt O75388)
Assay: qHTS for Agonists of Human Resolvin D1 Receptor DRV1; note: 0% is about no effect
Conditions: CHO-K1 GPR32 beta-arrestin PathHunter luminescence, 90 min; at 76.9 µM; hits give high values; zero percent set by DMSO-only wells
Method in brief: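 Luminescent readout of beta-Gal complementation quantifies ligand-induced beta-arrestin association with GPR32 in CHO-K1 cells; 90 min compound incubation at 37 °C, detection 1 h at room temperature.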

UniProt O75388, sequence (O75388 whole entry, looked up): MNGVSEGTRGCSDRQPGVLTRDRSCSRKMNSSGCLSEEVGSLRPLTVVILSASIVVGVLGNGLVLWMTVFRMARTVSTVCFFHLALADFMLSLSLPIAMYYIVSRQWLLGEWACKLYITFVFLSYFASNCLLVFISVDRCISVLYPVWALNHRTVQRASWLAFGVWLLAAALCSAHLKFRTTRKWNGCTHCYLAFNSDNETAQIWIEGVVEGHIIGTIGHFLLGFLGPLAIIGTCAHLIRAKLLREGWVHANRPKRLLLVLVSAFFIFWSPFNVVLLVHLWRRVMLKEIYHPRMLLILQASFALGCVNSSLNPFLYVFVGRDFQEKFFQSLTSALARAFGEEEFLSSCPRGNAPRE

Row | Compound | activation
1 | CCCOc1ccccc1-c1nc2n[nH]nc2c(=O)[nH]1 | inactive: 17.1% and inactive: 3.15%
2 | CCOc1ccc(CNC(=O)CCc2cn(CC)c3ccccc23)cc1 | inactive: -13.7%
3 | CC1=C(c2ccc(C)c(C)c2)S(=O)(=O)N=C1N1CCC(C(=O)N2CCCCC2)CC1 | inactive: 7.16%
4 | COc1cc(C(=O)Nc2ccc(OCc3cc(=O)n4cccc(C)c4n3)cc2)cc(OC)c1OC | inactive: 27.9%
5 | O=C(NCCc1ccccc1)c1ccc(CSc2nc3ccncc3n2Cc2cccc(F)c2)cc1 | inactive: -21.7%
6 | CCc1ccc(NC(=O)C2CCN(S(=O)(=O)c3c(C)noc3/C=C\c3ccc(OC)cc3)CC2)cc1 | inactive: -22.1%
7 | CCCCOc1ccc(CN2C(=O)C(=O)c3cc(C)ccc32)cc1OC | inactive: -70%
8 | COc1ccccc1CNc1ccc(-c2nc(-c3cccc(C)c3)no2)cc1[N+](=O)[O-] | inactive: -7.18%
9 | CCN(CC)C(=O)c1sc2c(c1C)c(=O)n(CCc1ccccc1)c(=O)n2Cc1cccc(Cl)c1 | inactive: -49%
10 | COc1ccc(-n2nc(C(=O)NCc3ccc(F)cc3)c3c4ccccc4n(C)c3c2=O)cc1 | inactive: -18.5%
11 | CCOc1ccccc1N1CC(c2nc3ccccc3n2CCCCOc2cc(C)ccc2C)CC1=O (stereo unspecified) | inactive: -8.64%
12 | CN(C)c1ccc(CNC(=O)c2ccc3c(c2)N(C)C(=O)C2CCCCN32)cc1 (stereo unspecified) | inactive: 9.75%
13 | O=C(c1cnc(N2CCOCC2)c2ccccc12)N1CCN(c2ccccc2F)CC1 | inactive: -10%
14 | COc1ccccc1CNC(=O)c1ccc2c(c1)N(Cc1ccc(C)cc1)CCS2 | inactive: -17.6%
15 | CCN(CC)S(=O)(=O)c1ccc2c(c1)N(CC(=O)NCC(C)c1ccccc1)C(=O)CO2 (stereo unspecified) | inactive: -26.9%
16 | CCc1ccccc1NC(=O)CN1C(=O)COc2ccc(S(=O)(=O)N3CCCCCC3)cc21 | inactive: -6.99%
17 | Cc1ccc(-n2ncc3c(N4CCCCCC4)ncnc32)cc1C | inactive: 21.9%
18 | CCn1cc(C(=O)N2CCN(c3ccccc3OC)CC2)c(=O)c2cc(S(=O)(=O)N3CCC(C)CC3)ccc21 | inactive: -9.84%
19 | CC(C)Oc1ccc(CNC(=O)c2ccccc2NC(=O)c2nsc3ccccc23)cc1 | inactive: -14.1%
20 | CC(=O)Oc1cccc(C)c1 | inactive: 2.1%
21 | CNS(=O)(=O)c1cn(CC(=O)N2CCN(c3cccc(Cl)c3)CC2)cc1S(=O)(=O)NC | inactive: 4.32%

Row | Compound | activation
22 | CCN(CC)C(=O)C1=CC(c2ccc3c(c2)OCO3)=NS(=O)(=O)N1C | inactive: 6.04%
23 | Cc1ccc(NC(=O)CSc2nc3ccc(NC(=O)CCc4ccccc4)cc3s2)c(C)c1 | inactive: -24.5%
24 | O=C(CCCCn1c(=O)c2ccccc2n(Cc2ccccc2F)c1=O)NCc1ccccc1Cl | inactive: -3.2%
25 | CCC(Oc1ccccc1)C(=O)Nc1ccc(OCc2cc(=O)n3ccc(C)cc3n2)cc1 (stereo unspecified) | inactive: -4.22%
26 | Cc1oc(-c2ccccc2F)nc1CSCC(=O)NCCc1ccccc1 | inactive: -2.52%
27 | COC(=O)c1ccc(CN(Cc2ccc(OC)c(OC)c2)S(=O)(=O)c2cc(C(=O)Nc3cccc(C)c3)ccc2F)cc1 | inactive: -19.2%
28 | O=S(=O)(NCCc1nnc2ccc(SCc3c(F)cccc3Cl)nn12)c1ccccc1 | inactive: -26.1%
29 | CCCCN(C(=O)CCn1c(=O)oc2ccccc21)c1ccccc1 | inactive: -7.07%
30 | COc1ccc(OCC(=O)N2CCN(C(=O)c3cccc(OC)c3OC)CC2)cc1 | inactive: 3.85%
31 | COc1cc(NC(=O)c2noc3c2CC(C(C)(C)C)CC3)cc(OC)c1OC (stereo unspecified) | inactive: -0.301%
32 | COCCn1c(C)cc(O)c(C(c2ccccc2Cl)N2CCN(c3ccccc3)CC2)c1=O (stereo unspecified) | inactive: -8.26%
33 | CCN(CC)C(=O)c1sc2c(c1C)c(=O)n(Cc1ccccc1)c(=O)n2Cc1c(C)cc(C)cc1C | inactive: -21.3%
34 | O=C(NCC(c1ccco1)S(=O)(=O)c1cccs1)c1c(F)cccc1F (stereo unspecified) | inactive: -5.44%
35 | CCOC(=O)c1ccc(NC(=O)c2c(NCc3ccc(OC)c(OC)c3OC)sc3c2CCC(C)C3)cc1 (stereo unspecified) | inactive: -9.82%
36 | O=C(NCC(c1cccnc1)N1CCc2ccccc21)c1cccc(F)c1 (stereo unspecified) | inactive: -29%
37 | Cc1nn(-c2ccc(N3CCCC3)nn2)c(C)c1CCC(=O)N1CCN(c2ccc(F)cc2)CC1 | inactive: -11.7%
38 | Cc1ccc2[nH]c(C)c(CCNC(=O)c3cc4cc(Br)ccc4oc3=O)c2c1 | inactive: -17%
39 | Cc1cccc(NC(=O)Cn2c(=O)n(CC3CCC(C(=O)NCCc4ccccc4)CC3)c(=O)c3ccccc32)c1C (stereo unspecified) | inactive: 5.35%
40 | Cc1ccc(NS(=O)(=O)c2ccc3[nH]c4c(c3c2)CCCCCC4)cc1C | inactive: -1.63%
41 | CCOC(=O)c1cc(S(=O)(=O)N(C)c2ccccc2)[nH]n1 | inactive: 1.69%
42 | Cc1ccc2nc(N)[nH]c(=O)c2c1Sc1ccncc1 | inactive: 9.3%

Row | Compound | activation
43 | CCOc1ccc(S(=O)(=O)Nc2ccc3c(c2)CCCN3S(=O)(=O)c2ccc(C)cc2)cc1 | inactive: -19.4%
44 | CCOc1ccccc1CNC(=O)CCCn1c(=O)c2cccn2c2ccc(F)cc21 | inactive: -15.5%
45 | COC(=O)c1sc2cccc(F)c2c1S(=O)(=O)NCc1ccccc1Cl | inactive: -34%
46 | COc1ccc(NC(=O)CN(C)S(=O)(=O)c2ccc3nc(C)sc3c2)cc1Cl | inactive: 29.3%
47 | Cn1c(C(=O)NCc2ccccc2F)cc2cc(S(=O)(=O)N3CCCCC3)ccc21 | inactive: -13.4%
48 | Cn1c(Oc2cccc(Cl)c2)nc2c1c(=O)n(Cc1ccccc1Cl)c(=O)n2C | inactive: 7.94%
49 | COc1ccc(CCNCc2c(C(=O)O)c(C)n(Cc3cccc(C)c3)c2C)cc1OC | inactive: -2.52%
50 | Cc1cccc(Nc2nnc(-c3ccc(C)c(S(=O)(=O)N4CCOCC4)c3)c3ccccc23)c1 | inactive: -10.8%
51 | CCCOc1ccc(C(=O)Nc2ccc(NC(=O)c3ccc(Br)cc3)cc2)cc1 | inactive: -9.55%
52 | N#C/C(=C/c1ccccc1Cl)c1nc(-c2cc3ccccc3oc2=O)cs1 | inactive: -4.47%
53 | COC(=O)c1cc(NC(=O)Cn2nc(-c3ccccc3)c3c(c2=O)CCCC3)cc(C(=O)OC)c1 | inactive: -34.4%
54 | COc1cc(C)ccc1OCCSc1nc2ccc(NC(=O)c3ccccc3F)cc2s1 | inactive: 3.32%
55 | O=C(Cn1c(=O)n(CC2CCCO2)c(=O)c2ccccc21)Nc1ccc(F)cc1F (stereo unspecified) | inactive: 15.2%
56 | Fc1ccc(NCc2ccccc2-c2nnc(-c3ccccc3Cl)o2)cc1Cl | inactive: -14.7%
57 | CCc1ccc(-c2cc(C)no2)cc1S(=O)(=O)NCc1ccc(OC)cc1 | inactive: 12.8%
58 | Cc1cccc2cc(-c3nc(-c4cccs4)no3)c(=O)oc12 | inactive: -6.57%
59 | Cc1sc2ncn(CC(=O)N3CCN(c4cccc(Cl)c4)CC3)c(=O)c2c1S(=O)(=O)N1CCC(C)CC1 | inactive: -9.99%
60 | CCOc1ccc(C(c2c(O)cc(C)n(CCOC)c2=O)N2CCN(c3ccc(F)cc3)CC2)cc1 (stereo unspecified) | inactive: -8.91%
61 | CCOc1ccc(-n2c(=O)c3c(C)c(C)sc3n(Cc3ccc(C(C)(C)C)cc3)c2=O)cc1 | inactive: -4.51%
62 | CC(=O)N1CCc2c(sc3c2c(=O)n(-c2cc(Cl)ccc2C)c(=O)n3C)C1 | inactive: -8.07%
63 | CCN(CC)C(=O)Cn1c(=O)n(CCCCCC(=O)NCc2ccc(C)cc2)c(=O)c2sccc21 | inactive: -8.16%

Row | Compound | activation
64 | CCCCNC(=O)Cn1nc(N2CCN(c3ccccc3OC)CC2)ccc1=O | inactive: -15.7%
65 | CCCCCN=C(N)N/N=C/c1c[nH]c2ccc(OC)cc12 | active: 73.5%
66 | COc1cccc(C(=O)N2CCc3cc(OC)c(OC)cc3C2COc2ccc3c(C)cc(=O)oc3c2)c1 (stereo unspecified) | inactive: -7.16%
67 | CCn1cc(S(=O)(=O)c2cc(C)cc(C)c2)c(=O)c2cc(F)c(N3CCN(c4ccccc4)CC3)cc21 | inactive: -11.2%
68 | Cc1ccc(Cl)cc1N1CCN(C(=O)COc2cc(=O)n(C)c3ccccc23)CC1 | inactive: -2.54%
69 | COc1cc2c(cc1OC)C(COc1ccccc1OC)N(C(=O)c1ccc(S(=O)(=O)N(C)C)cc1)CC2 (stereo unspecified) | inactive: -13%
70 | CC(=O)N1CCc2c(sc3c2c(=O)n(Cc2ccccc2)c(=O)n3Cc2ccccc2Cl)C1 | inactive: -49.6%
71 | Cc1ccc(/C=C/c2onc(C)c2S(=O)(=O)N2CCC(C(=O)N3CCN(c4cc(C)ccc4C)CC3)CC2)cc1 | inactive: -0.979%
72 | COc1ccc(Nc2nc3c(S(=O)(=O)c4ccc(C)cc4)nnn3c3ccsc23)cc1Cl | inactive: -7.7%
73 | CC1CN(C(=O)N2CCC(C(=O)NCc3cccs3)CC2)c2ccccc2O1 (stereo unspecified) | inactive: 3.12%
74 | CCC1CCCCN1CCCNC(=O)c1c(O)nc2cc(C)ccn2c1=O (stereo unspecified) | inactive: -21.4%
75 | COC(=O)c1cc2sc(Cl)cc2n1Cc1nc(-c2ccccc2C)oc1C | inactive: -9.19%
76 | COc1cc(-c2nc(-c3ccccc3)c(-c3ccc(Br)cc3)[nH]2)cc(OC)c1O | inactive: -3.42%
77 | CCCCN(CC)C(=O)CSc1nc2ccccc2c(=O)n1Cc1ccco1 | inactive: -1.65%
78 | COc1cccc(CNC(=O)Cn2c(=O)nc(-c3ccccc3F)c3cc(Cl)ccc32)c1 | inactive: -8.41%
79 | CC1CCN(S(=O)(=O)c2ccc3c(c2)N(CC(=O)NC(C)(C)C)C(=O)CS3)CC1 | inactive: -9.74%
80 | COc1ccc(Nc2oc(/C=C/c3cc(OC)c(OC)c(OC)c3)nc2C#N)cc1 | inactive: 4.56%
81 | CCOC(=O)c1ccccc1NC(=O)CSc1cn(CC(=O)N2CCCCCC2)c2ccccc12 | inactive: -25.6%
